Counter-ions that a name gives are not always drawn. This is one part of the list. The data scatter; read single values as rough. Residues, ends and D or L forms follow the SMILES beside them.
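Note: High-content imaging of ALDEFLUOR-stained cells with Hoechst-labelled nuclei in 384-well plates, triplicate wells, scored as Z-score against 0.1% DMSO vehicle, negative meaning fewer ALDHbr cells.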

In one test the test system is PANC1. Nature of the test: ALDHbr (CSC) cell proportion score relative to DMSO vehicle (ratio to DMSO); breast (SUM159) / gastric (MKN45) / pancreatic (PANC1) / colon cancer lines; ALDHbr cells have high ALDH activity and are rich in cancer stem cells (CSC); higher = more CSC (ALDHbr) cells remaining. The following applies: 10 µM; 72 h.
`Cc1onc(-c2ccccc2Cl)c1C(=O)N[C@@H]1C(=O)N2[C@@H]1SC(C)(C)[C@@H]2C(=O)O` [Cloxacillin sodium salt]: the ALDHbr came to 0.875.

For the compound `CC(=O)N(CC(O)CO)c1c(I)c(C(=O)NCC(O)CO)c(I)c(C(=O)NCC(O)CO)c1I` (centres undefined) [Iohexol], the ALDHbr was found to be 0.873.

On to `Cc1ccc(NC(=O)c2ccc(CN3CCN(C)CC3)cc2)cc1Nc1nccc(-c2cccnc2)n1` [Imatinib], for which the ALDHbr stood at 1.9.

For the compound `CCc1nc(N)nc(N)c1-c1ccc(Cl)cc1` [Pyrimethamine], the ALDHbr turned out to be 1.12.

`CNCC[C@@H](Oc1cccc2ccccc12)c1cccs1` [(R)-Duloxetine hydrochloride]: the ALDHbr stood at 1.3.

With `COc1cnc(NS(=O)(=O)c2ccc(N)cc2)nc1` [Sulfameter], the ALDHbr is 1.04.

Regarding `CNCCC=C1c2ccccc2CCc2ccccc21` [Nortriptyline hydrochloride], the ALDHbr was 0.867.

For the compound `CN(C)CCCN1c2ccccc2CCc2ccccc21` [Imipramine hydrochloride], the ALDHbr turned out to be 1.39.

Take `O=C(O)c1ccccc1Nc1cccc(C(F)(F)F)c1` [Flufenamic acid]: the ALDHbr came to 1.05.

For a further test, the system named is SUM159. The description is as above. The following applies: 10 µM; 72 h.
For `CCN(CC)CCNC(C(=O)OCCC(C)C)c1ccccc1` (centres undefined) [Camylofine chlorhydrate], the ALDHbr is 0.934.

`CC(=O)OCC(=O)[C@@]1(O)CC[C@H]2[C@@H]3CCC4=CC(=O)CC[C@]4(C)[C@@]3(F)[C@@H](O)C[C@@]21C` [Fludrocortisone acetate]: the ALDHbr worked out at 1.4.

As for `CC(C(=O)O)c1ccc(N2Cc3ccccc3C2=O)cc1` (centres undefined) [Indoprofen], the ALDHbr was determined as 1.18.

Turning to `O=C1CN2Cc3c(ccc(Cl)c3Cl)N=C2N1` [Anagrelide], the ALDHbr came to 1.

Consider `CC(C)(C)NC[C@H](O)COc1cccc2c1CCCC2=O` [(-) -Levobunolol hydrochloride], for which the ALDHbr came out at 0.848.

On to `CCCc1nc(C)c2c(=O)nc(-c3cc(S(=O)(=O)N4CCN(CC)CC4)ccc3OCC)[nH]n12` [Vardenafil], for which the ALDHbr worked out at 0.904.

In the case of `CC1(C)O[C@@H]2C[C@H]3[C@@H]4CCC5=CC(=O)C=C[C@]5(C)[C@H]4[C@@H](O)C[C@]3(C)[C@]2(C(=O)CO)O1` [Desonide], the ALDHbr came to 0.936.

Turning to `CNCCCC12CCC(c3ccccc31)c1ccccc12` [Maprotiline hydrochloride], the ALDHbr is 0.598.

`CNc1ncnc2c1ncn2[C@@H]1O[C@H](CO)[C@@H](O)[C@H]1O` [N6-methyladenosine]: the ALDHbr was found to be 1.36.

For the compound `C=CCOc1ccccc1OCC(O)CNC(C)C` (centres undefined) [Oxprenolol hydrochloride], the ALDHbr stood at 1.17.

In the case of `NS(=O)(=O)c1cc2c(cc1Cl)N=CNS2(=O)=O` [Chlorothiazide], the ALDHbr turned out to be 1.05.

With `Cc1nc(=O)c2cc(CN(C)c3ccc(C(=O)N[C@@H](CCC(=O)O)C(=O)O)s3)ccc2[nH]1` [Raltitrexed], the ALDHbr amounted to 0.855.

Consider `NC12CC3CC(CC(C3)C1)C2` [Adamantamine fumarate], for which the ALDHbr amounted to 0.704.

Regarding `CCN(CCO)CCCC(C)Nc1ccnc2cc(Cl)ccc12` (centres undefined) [Hydroxychloroquine sulfate], the ALDHbr turned out to be 0.731.

As for `COc1ccc(C(Cl)=C(c2ccc(OC)cc2)c2ccc(OC)cc2)cc1` [Chlorotrianisene], the ALDHbr was determined as 1.07.

`CC(C)Oc1ccc2c(=O)c(-c3ccccc3)coc2c1` [Ipriflavone]: the ALDHbr was found to be 2.85.

In the case of `C(=C\c1ccccc1)/CN1CCN(C(c2ccccc2)c2ccccc2)CC1` [Cinnarizine], the ALDHbr amounted to 1.19.

With `CCC(C)(C)c1ccc(CC(C)CN2C[C@@H](C)O[C@@H](C)C2)cc1` (some centres undefined) [Amorolfine hydrochloride], the ALDHbr worked out at 0.615.

Consider `CCC(=O)OCC(=O)[C@@]1(OC(=O)CC)[C@H](C)C[C@H]2[C@H]3[C@H]([C@@H](O)C[C@@]21C)[C@@]1(C)C=CC(=O)C=C1C[C@H]3Cl` [Alclometasone dipropionate], for which the ALDHbr was 1.14.

For the compound `CC1(C)S[C@@H]2[C@H](NC(=O)[C@H](N)c3ccccc3)C(=O)N2[C@H]1C(=O)O` [Ampicillin trihydrate], the ALDHbr was 1.

Turning to `CCC1NC(=O)c2cc(S(N)(=O)=O)c(Cl)cc2N1` (centres undefined) [Quinethazone], the ALDHbr was 1.02.

`CC(=O)N[C@@H](CC(=O)O)C(=O)N[C@@H](CCC(=O)O)C(=O)O` [Spaglumic acid] (Ac-Asp-Glu-OH): the ALDHbr worked out at 1.29.

Regarding `C#C[C@]1(O)CC[C@H]2[C@@H]3CCC4=CC(=O)CC[C@@H]4[C@H]3CC[C@@]21CC` [Norgestrel-(-)-D], the ALDHbr was determined as 1.17.

Consider `CCN(CC)CCOC(=O)C1(C2CCCCC2)CCCCC1` [Dicyclomine hydrochloride], for which the ALDHbr was 1.33.

Consider `Cc1ccc(-c2cc(C(F)(F)F)nn2-c2ccc(S(N)(=O)=O)cc2)cc1` [Celecoxib], for which the ALDHbr was 0.899.

For `C#C[C@]1(O)CC[C@H]2[C@@H]3CCC4=C(CCC(=O)C4)[C@H]3CC[C@@]21C` [Norethynodrel], the ALDHbr was 1.27.

Take `C[C@H](CCC(=O)O)[C@H]1CC[C@H]2[C@@H]3CC[C@@H]4C[C@H](O)CC[C@]4(C)[C@H]3CC[C@]12C` [Lithocholic acid]: the ALDHbr worked out at 1.31.

On to `O=C(c1ccc(OCCN2CCCCC2)cc1)c1c(-c2ccc(O)cc2)sc2cc(O)ccc12` [Raloxifene hydrochloride], for which the ALDHbr amounted to 0.456.

Take `COCCc1ccc(OCC(O)CNC(C)C)cc1` (racemic) [Metoprolol-(+,-) (+)-tartrate salt]: the ALDHbr stood at 0.976.

In the case of `CC(=O)[C@@]12O[C@](C)(c3ccccc3)O[C@@H]1C[C@H]1[C@@H]3CCC4=CC(=O)CC[C@]4(C)[C@H]3CC[C@@]12C` [Algestone acetophenide], the ALDHbr stood at 0.428.

As for `CC(=O)OCC(=O)[C@@]1(O)[C@H](C)C[C@H]2[C@@H]3CCC4=CC(=O)C=C[C@]4(C)[C@@]3(F)[C@@H](O)C[C@@]21C` [Dexamethasone acetate], the ALDHbr amounted to 1.01.

For `Cc1onc(-c2ccccc2Cl)c1C(=O)N[C@@H]1C(=O)N2[C@@H]1SC(C)(C)[C@@H]2C(=O)O` [Cloxacillin sodium salt], the ALDHbr worked out at 1.05.

For `CC(=O)N(CC(O)CO)c1c(I)c(C(=O)NCC(O)CO)c(I)c(C(=O)NCC(O)CO)c1I` (centres undefined) [Iohexol], the ALDHbr is 0.966.

Consider `Cc1ccc(NC(=O)c2ccc(CN3CCN(C)CC3)cc2)cc1Nc1nccc(-c2cccnc2)n1` [Imatinib], for which the ALDHbr was 1.19.

For the compound `CCc1nc(N)nc(N)c1-c1ccc(Cl)cc1` [Pyrimethamine], the ALDHbr came to 1.62.

On to `CNCC[C@@H](Oc1cccc2ccccc12)c1cccs1` [(R)-Duloxetine hydrochloride], for which the ALDHbr came out at 0.64.

For `COc1cnc(NS(=O)(=O)c2ccc(N)cc2)nc1` [Sulfameter], the ALDHbr was 1.02.

In the case of `CNCCC=C1c2ccccc2CCc2ccccc21` [Nortriptyline hydrochloride], the ALDHbr stood at 0.563.

As for `CN(C)CCCN1c2ccccc2CCc2ccccc21` [Imipramine hydrochloride], the ALDHbr was found to be 0.939.

For the compound `O=C(O)c1ccccc1Nc1cccc(C(F)(F)F)c1` [Flufenamic acid], the ALDHbr stood at 0.871.

Source of the values: the supplement of paper PMC11880418.
